Assay results taken from paper PMC6637204, “Inactivating mutations and X-ray crystal structure of the tumor suppressor OPCML reveal cancer-associated functions” (Nature Communications, 2019).
No constants are given. Whether binding was seen depends on the method and setting. For some assays here: In cells and extracts the contact can be indirect. Some binding calls cover weakened binding; strength is not graded here. For some assays here: Where a sequence is shown, tags or fusion partners need not be part of it.

Protein sequences, listed by entry. Tags and fused reporters are not part of them. Lines headed by an entry give the natural chain unless they say otherwise; changes in a name come on top. Residues count along the entry.
UniProt P11362: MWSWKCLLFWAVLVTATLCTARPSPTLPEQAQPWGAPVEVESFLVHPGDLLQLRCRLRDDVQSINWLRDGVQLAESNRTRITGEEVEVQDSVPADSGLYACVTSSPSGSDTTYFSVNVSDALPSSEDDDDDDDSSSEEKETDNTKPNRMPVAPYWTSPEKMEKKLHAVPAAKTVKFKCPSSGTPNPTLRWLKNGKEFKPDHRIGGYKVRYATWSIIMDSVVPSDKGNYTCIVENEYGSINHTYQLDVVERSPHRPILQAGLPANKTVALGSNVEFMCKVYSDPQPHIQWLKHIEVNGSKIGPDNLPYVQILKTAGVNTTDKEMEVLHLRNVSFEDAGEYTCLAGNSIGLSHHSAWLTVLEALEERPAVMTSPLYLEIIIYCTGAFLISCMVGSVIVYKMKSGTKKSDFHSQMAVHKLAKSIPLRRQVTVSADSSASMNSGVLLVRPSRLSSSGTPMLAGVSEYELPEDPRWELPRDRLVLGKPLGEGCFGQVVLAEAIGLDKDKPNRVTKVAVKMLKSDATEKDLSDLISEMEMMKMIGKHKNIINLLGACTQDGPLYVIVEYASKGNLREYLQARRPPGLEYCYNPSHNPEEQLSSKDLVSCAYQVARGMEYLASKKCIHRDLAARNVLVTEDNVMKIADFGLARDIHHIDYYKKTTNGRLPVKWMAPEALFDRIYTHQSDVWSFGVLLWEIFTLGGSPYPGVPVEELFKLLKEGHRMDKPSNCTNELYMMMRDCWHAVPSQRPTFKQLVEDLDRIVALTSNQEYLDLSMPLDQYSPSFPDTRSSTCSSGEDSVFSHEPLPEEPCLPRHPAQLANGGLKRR
FGFR1 in SKOV3 cells (human (endogenous in SKOV3)): residues 22-822 of P11362
UniProt P30530: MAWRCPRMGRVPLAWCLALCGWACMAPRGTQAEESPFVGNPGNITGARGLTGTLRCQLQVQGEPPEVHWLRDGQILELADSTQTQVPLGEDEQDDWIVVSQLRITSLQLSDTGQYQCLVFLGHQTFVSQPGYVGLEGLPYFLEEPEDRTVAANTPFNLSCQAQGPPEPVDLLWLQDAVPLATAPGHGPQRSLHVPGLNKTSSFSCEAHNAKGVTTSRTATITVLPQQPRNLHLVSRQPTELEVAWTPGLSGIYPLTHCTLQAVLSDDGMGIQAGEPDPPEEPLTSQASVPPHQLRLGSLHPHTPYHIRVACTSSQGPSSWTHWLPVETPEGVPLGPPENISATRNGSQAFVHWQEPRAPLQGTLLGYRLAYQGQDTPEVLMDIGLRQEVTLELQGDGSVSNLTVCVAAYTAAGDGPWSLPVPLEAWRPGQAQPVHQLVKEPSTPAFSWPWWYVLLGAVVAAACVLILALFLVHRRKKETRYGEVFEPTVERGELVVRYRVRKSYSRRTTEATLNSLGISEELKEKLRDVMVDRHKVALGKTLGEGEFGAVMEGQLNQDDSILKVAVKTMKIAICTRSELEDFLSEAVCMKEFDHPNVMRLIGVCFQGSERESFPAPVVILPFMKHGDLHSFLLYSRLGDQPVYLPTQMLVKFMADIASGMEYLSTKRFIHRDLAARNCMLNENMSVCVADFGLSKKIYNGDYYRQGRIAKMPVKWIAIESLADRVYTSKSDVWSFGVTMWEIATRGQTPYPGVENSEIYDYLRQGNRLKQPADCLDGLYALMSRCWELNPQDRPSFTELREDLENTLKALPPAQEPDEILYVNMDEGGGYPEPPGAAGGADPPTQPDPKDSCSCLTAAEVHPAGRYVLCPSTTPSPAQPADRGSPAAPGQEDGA
AXL in SKOV3 and HCT116 cells (human (endogenous in SKOV3 and HCT116)): residues 26-894 of P30530

How the values were obtained:
[1] = target: T1, OPCML in the pM vector (GAL4 DNA binding domain fusion) (human) (UniProt Q14982); test: two-hybrid; mammalian 2-hybrid in COS-1 cells; OPCML in pM (GAL4 DNA binding domain), receptor extracellular domains in pVP16; pGAL4 Luc reporter, normalized to beta-galactosidase
T1 sequence: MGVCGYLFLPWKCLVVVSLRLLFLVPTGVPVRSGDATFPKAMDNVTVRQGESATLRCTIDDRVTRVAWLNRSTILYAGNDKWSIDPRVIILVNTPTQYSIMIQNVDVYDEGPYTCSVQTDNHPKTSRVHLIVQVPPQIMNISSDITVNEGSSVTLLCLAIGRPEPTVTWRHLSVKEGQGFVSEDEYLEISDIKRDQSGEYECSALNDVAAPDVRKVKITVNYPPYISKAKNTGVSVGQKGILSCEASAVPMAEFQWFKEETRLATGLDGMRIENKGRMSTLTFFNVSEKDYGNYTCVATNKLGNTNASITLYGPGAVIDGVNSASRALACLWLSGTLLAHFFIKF

[2] = target: T2, OPCML P95R in the pM vector (GAL4 DNA binding domain fusion) (human) (UniProt Q14982); test: as above
T2 sequence: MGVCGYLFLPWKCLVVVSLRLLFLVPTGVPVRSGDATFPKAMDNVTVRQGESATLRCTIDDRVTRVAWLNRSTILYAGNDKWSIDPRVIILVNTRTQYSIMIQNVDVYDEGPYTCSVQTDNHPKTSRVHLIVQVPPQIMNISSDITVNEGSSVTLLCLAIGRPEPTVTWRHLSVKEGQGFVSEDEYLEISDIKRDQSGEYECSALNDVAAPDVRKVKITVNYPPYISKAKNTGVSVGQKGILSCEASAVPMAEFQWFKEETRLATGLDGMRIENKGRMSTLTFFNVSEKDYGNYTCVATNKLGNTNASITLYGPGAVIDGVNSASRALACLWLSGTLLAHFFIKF

[3] = target: FGFR1 in SKOV3 cells (human (endogenous in SKOV3)) (UniProt P11362); test: proximity ligation; DuoLink PLA on fixed SKOV3 cells expressing WT or mutant OPCML; unstimulated or stimulated with GAS6 (AXL; 30 min, 3 h or 12 h) or FGF1 (FGFR1; 30 min or 3 h); mouse anti-OPCML and rabbit anti-receptor antibodies
[4] = target: AXL in SKOV3 and HCT116 cells (human (endogenous in SKOV3 and HCT116)) (UniProt P30530); test: as above
[5] = target: soluble recombinant OPCML R65L (residues 36-316) (human) (UniProt Q14982); test: SEC; gel filtration; dilutions equilibrated 24 h, 50 µL on Superdex 200 10/30 GL at 0.5 mL/min; peak elution volume against concentration fit to a monomer-dimer equilibrium (dimer to monomers); both purified
[6] = target: soluble recombinant OPCML R65L (residues 36-316) (human) (UniProt Q14982); test: SEC-MALLS; samples at 1 µg/µL, 1 mL/min in PBS pH 7.4, room temperature; both purified
[7] = target: OPCML R65L expressed in transduced cancer cells (human) (UniProt Q14982); test: SDS-PAGE without heat denaturation, western blot; extracts of transduced cells run without prior heat denaturation, anti-OPCML blot

Molecule | binding [3] | binding [4] | also measured
extracellular domain of FGFR1 in the pVP16 vector (VP16 activation domain fusion) (from UniProt P11362 22-376) (domain or fragment) | – | – | binding [1]: binds; binding [2]: binds
extracellular domain of AXL in the pVP16 vector (VP16 activation domain fusion) (from UniProt P30530 26-451) (domain or fragment) | – | – | binding [1]: binds; binding [2]: no binding
wild-type OPCML expressed in transduced cancer cells (natural protein, human, UniProt Q14982 28-322, looked up, OPCML, human, WT cDNA from pENTR4 shuttled to pLenti CMV Puro DEST; GPI-anchored, membrane-localized; also called WT OPCML; WT; source: SKOV3, PEA1, PEO1 and HCT116 cells, stably transduced (lentivirus, pLenti CMV Puro DEST); on cells or in lysate) GVPVRSGDATFPKAMDNVTVRQGESATLRCTIDDRVTRVAWLNRSTILYAGNDKWSIDPRVIILVNTPTQYSIMIQNVDVYDEGPYTCSVQTDNHPKTSRVHLIVQVPPQIMNISSDITVNEGSSVTLLCLAIGRPEPTVTWRHLSVKEGQGFVSEDEYLEISDIKRDQSGEYECSALNDVAAPDVRKVKITVNYPPYISKAKNTGVSVGQKGILSCEASAVPMAEFQWFKEETRLATGLDGMRIENKGRMSTLTFFNVSEKDYGNYTCVATNKLGNTNASITLYGPGAVIDGVN | binds | binds | –
OPCML N70H expressed in transduced cancer cells (protein, UniProt Q14982 28-322) GVPVRSGDATFPKAMDNVTVRQGESATLRCTIDDRVTRVAWLHRSTILYAGNDKWSIDPRVIILVNTPTQYSIMIQNVDVYDEGPYTCSVQTDNHPKTSRVHLIVQVPPQIMNISSDITVNEGSSVTLLCLAIGRPEPTVTWRHLSVKEGQGFVSEDEYLEISDIKRDQSGEYECSALNDVAAPDVRKVKITVNYPPYISKAKNTGVSVGQKGILSCEASAVPMAEFQWFKEETRLATGLDGMRIENKGRMSTLTFFNVSEKDYGNYTCVATNKLGNTNASITLYGPGAVIDGVN | binds | binds | –
OPCML P95R expressed in transduced cancer cells (protein, UniProt Q14982 28-322) GVPVRSGDATFPKAMDNVTVRQGESATLRCTIDDRVTRVAWLNRSTILYAGNDKWSIDPRVIILVNTRTQYSIMIQNVDVYDEGPYTCSVQTDNHPKTSRVHLIVQVPPQIMNISSDITVNEGSSVTLLCLAIGRPEPTVTWRHLSVKEGQGFVSEDEYLEISDIKRDQSGEYECSALNDVAAPDVRKVKITVNYPPYISKAKNTGVSVGQKGILSCEASAVPMAEFQWFKEETRLATGLDGMRIENKGRMSTLTFFNVSEKDYGNYTCVATNKLGNTNASITLYGPGAVIDGVN | binds | no binding | –
soluble recombinant OPCML R65L (residues 36-316) (domain or fragment, human, UniProt Q14982 36-316, looked up, OPCML, human, UniProt Q14982, residues 36-316 (D1-D3), clinical somatic mutation R65L; Same construct as m1 with R65L; PDB 5UV6 is the wild-type parent; ALVPR probably left at the C-terminus after thrombin (surmised); also called rR65L; source: Hi5 insect cells, baculovirus, secreted; purified (protein A, thrombin digestion, negative protein A, HiTrap Q, SEC); not shown: Fc (human IgG1, UniProt …)) ATFPKAMDNVTVRQGESATLRCTIDDRVTLVAWLNRSTILYAGNDKWSIDPRVIILVNTPTQYSIMIQNVDVYDEGPYTCSVQTDNHPKTSRVHLIVQVPPQIMNISSDITVNEGSSVTLLCLAIGRPEPTVTWRHLSVKEGQGFVSEDEYLEISDIKRDQSGEYECSALNDVAAPDVRKVKITVNYPPYISKAKNTGVSVGQKGILSCEASAVPMAEFQWFKEETRLATGLDGMRIENKGRMSTLTFFNVSEKDYGNYTCVATNKLGNTNASITLYGPGA | – | – | binding [5]: no binding (tested: 32 μM); binding [6]: no binding (tested: 1 µg µL^−1)
OPCML R65L expressed in transduced cancer cells (protein, UniProt Q14982 28-322) GVPVRSGDATFPKAMDNVTVRQGESATLRCTIDDRVTLVAWLNRSTILYAGNDKWSIDPRVIILVNTPTQYSIMIQNVDVYDEGPYTCSVQTDNHPKTSRVHLIVQVPPQIMNISSDITVNEGSSVTLLCLAIGRPEPTVTWRHLSVKEGQGFVSEDEYLEISDIKRDQSGEYECSALNDVAAPDVRKVKITVNYPPYISKAKNTGVSVGQKGILSCEASAVPMAEFQWFKEETRLATGLDGMRIENKGRMSTLTFFNVSEKDYGNYTCVATNKLGNTNASITLYGPGAVIDGVN | no binding | no binding | binding [7]: no binding
OPCML P95L expressed in transduced SKOV3 cells (protein, UniProt Q14982 28-322) GVPVRSGDATFPKAMDNVTVRQGESATLRCTIDDRVTRVAWLNRSTILYAGNDKWSIDPRVIILVNTLTQYSIMIQNVDVYDEGPYTCSVQTDNHPKTSRVHLIVQVPPQIMNISSDITVNEGSSVTLLCLAIGRPEPTVTWRHLSVKEGQGFVSEDEYLEISDIKRDQSGEYECSALNDVAAPDVRKVKITVNYPPYISKAKNTGVSVGQKGILSCEASAVPMAEFQWFKEETRLATGLDGMRIENKGRMSTLTFFNVSEKDYGNYTCVATNKLGNTNASITLYGPGAVIDGVN | – | no binding | –
OPCML P95S expressed in transduced SKOV3 cells (protein, UniProt Q14982 28-322) GVPVRSGDATFPKAMDNVTVRQGESATLRCTIDDRVTRVAWLNRSTILYAGNDKWSIDPRVIILVNTSTQYSIMIQNVDVYDEGPYTCSVQTDNHPKTSRVHLIVQVPPQIMNISSDITVNEGSSVTLLCLAIGRPEPTVTWRHLSVKEGQGFVSEDEYLEISDIKRDQSGEYECSALNDVAAPDVRKVKITVNYPPYISKAKNTGVSVGQKGILSCEASAVPMAEFQWFKEETRLATGLDGMRIENKGRMSTLTFFNVSEKDYGNYTCVATNKLGNTNASITLYGPGAVIDGVN | – | no binding | –
